Test results taken from PubChem BioAssay (NCATS).
Several values for one entry are separate records, joined by “and”; a condition that tells them apart may be missing. Equal entries are not always repeated. The inconclusive results got no clear call from the source; some entries with a clear call stand among them for comparison. Potencies beside an inconclusive call are fits to weak or partial responses and may not hold up. Activity calls are given as the source filed them. Calls come from the whole dose curve; as a rule, active = well fitted curve in the direction sought with a large enough effect; inconclusive = small, poorly fitted or top-dose-only effect, or another doubt; inactive = no such curve, though single readings can be large; an effect the other way counts as inactive or inconclusive.

System: not listed separately
Test: qHTS for Inhibitors of the vitamin D receptor (VDR): Hit Validation using a Texas Red Assay (AID 602201)
Details: VDR coregulator binding, Texas Red fluorescence polarization, agonist-bound VDR ligand-binding domain; series mostly up to 57.1 µM
How it was run: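 After a 2-hour room-temperature incubation, polarization of Texas-Red emission was read (Ex 595 nm/Em 615 nm). Final mix contained 7 nM Texas Red, 1.5 uM VDR-LBD and LG19078.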
Potency is the fitted concentration of half-maximal effect; tags give direction and shape of the fitted curve.

SMILES | Potency
O=C1Nc2ccccc2/C1=C\C(=O)c1ccccc1 | inconclusive: 22.4 µM [inhibitor, partial curve]
C=CCOc1cccc(C(=O)/C=C2/C(=O)Nc3ccccc32)c1 | inconclusive: 2.82 µM [inhibitor, full curve]
CC(C)c1nnc(NC(=O)c2nc(S(=O)(=O)Cc3ccccc3F)ncc2Cl)s1 | inconclusive: 3.16 µM [inhibitor, full curve]
CCOC(=O)CNCCC(=O)c1ccc(Br)cc1 | inconclusive: 12.6 µM [inhibitor, partial curve]
O=C(/C=C/c1ccnc2ccccc12)c1cccs1 | active: 28.2 µM
O=[N+]([O-])/C=C/c1ccc2c(ccn2Cc2ccccc2)c1 | inconclusive: 2.24 µM [inhibitor, partial curve, poor fit]
CCc1ccc2c(c1)/C(=C/C(=O)c1cccs1)C(=O)N2 | inconclusive: 3.16 µM [inhibitor, full curve]
CS(=O)(=O)c1ncc(Cl)c(C(=O)Nc2ccc(OC(F)F)cc2)n1 | inconclusive: 2.82 µM [inhibitor, full curve, poor fit]
CCOC(=O)c1c(N)sc(N)c1C(=O)OCC | inconclusive: 2.51 µM [inhibitor, partial curve, poor fit]
CCOc1ccc(N(Cc2ccccc2)C(=O)c2nc(S(C)(=O)=O)ncc2Cl)cc1 | inconclusive: 39.8 µM [inhibitor, single point]
c1ccc(-c2nnc3sc(-c4csc5c4CCCC5)nn23)cc1 | active: 22.4 µM
COc1ccc(C(=O)c2coc3c2C(=O)C(=O)c2ccccc2-3)cc1 | active: 5.62 µM
CN(c1ccccc1)S(=O)(=O)c1ccc(NC(=O)c2nc(S(C)(=O)=O)ncc2Cl)cc1 | inconclusive: 39.8 µM [inhibitor, partial curve, poor fit] and inconclusive: 1.58 µM [inhibitor, full curve, poor fit]
c1ccc(-c2ccc(C3=Nn4c(Cn5nnc6ccccc65)nnc4SC3)cc2)cc1 | active: 22.4 µM
O=C1/C(=C/c2cccc([N+](=O)[O-])c2)CCc2ccccc21 | active: 31.6 µM
Cc1ccccc1N1C(=O)c2sc3nc4c(c(=O)n3c2C1=O)CCC4 | inconclusive: 25.1 µM [inhibitor, partial curve]

Biological target: Vitamin D3 receptor (Homo sapiens) (UniProt P11473)
Sequence of UniProt P11473 (P11473 whole entry, looked up): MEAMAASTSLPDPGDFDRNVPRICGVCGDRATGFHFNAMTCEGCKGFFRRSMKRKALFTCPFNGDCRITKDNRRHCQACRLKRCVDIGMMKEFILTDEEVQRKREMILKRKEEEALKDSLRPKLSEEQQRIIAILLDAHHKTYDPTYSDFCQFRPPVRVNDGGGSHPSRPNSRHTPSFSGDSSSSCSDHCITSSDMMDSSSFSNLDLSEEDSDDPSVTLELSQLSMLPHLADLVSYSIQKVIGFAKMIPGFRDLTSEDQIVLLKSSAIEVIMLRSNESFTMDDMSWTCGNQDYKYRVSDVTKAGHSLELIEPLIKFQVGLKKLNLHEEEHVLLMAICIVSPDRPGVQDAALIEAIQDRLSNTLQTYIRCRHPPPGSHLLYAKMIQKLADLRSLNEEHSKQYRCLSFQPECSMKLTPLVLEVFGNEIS
Test: qHTS for Inhibitors of the vitamin D receptor (VDR): Hit Validation using a Beta-Lactamase Assay (AID 602202)
Details: VDR beta-lactamase reporter cells, FRET ratio, cells co-treated with VDR agonist LG190178; series mostly up to 46.1 µM
How it was run: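 Beta-lactamase reporter read-out (447 nm emission of cleaved FRET substrate, 2 h) after 18 h compound exposure of HEK293 cells carrying a VDR-GAL4 fusion and UAS reporter, stimulated with LG190178.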

SMILES | Potency
O=C(/C=C/c1ccc(Br)cc1)c1ccc(NC2=NCCCS2)cc1 | inconclusive: 29.1 µM [inhibitor, single point]
O=C(Nc1nnc(-c2ccccc2)s1)C1CCCN(C(=O)c2ccoc2)C1 (stereo unspecified) | inconclusive: 18.4 µM [inhibitor, partial curve, poor fit]
COc1ccc(/C=C/C(=O)c2ccc(C)c([N+](=O)[O-])c2)cc1O | inconclusive: 18.4 µM [inhibitor, single point]
COc1cccc(/C=C2\C(=O)N(c3cccc(C)c3)C(=O)c3ccccc32)c1 | inactive
Cc1ccc(S(=O)(=O)CCC(=O)c2cccc([N+](=O)[O-])c2)cc1 | inconclusive: 23.1 µM [inhibitor, single point]
O=C(/C=C\c1ccccc1OC(=O)c1ccccc1F)c1cc2ccccc2o1 | inconclusive: 29.1 µM [inhibitor, single point]
CCOC(=O)/C(=C\c1ccc(OC(F)F)cc1)C1=Nn2c(nnc2-c2ccc(Cl)cc2)SC1 | active: 16.4 µM
O=C(Nc1ccccc1)c1nc(S(=O)(=O)Cc2ccccc2F)ncc1Cl | active: 3.26 µM
CCOC(=O)CCS(=O)(=O)c1nc(-c2ccccc2)cc(C(F)(F)F)n1 | inconclusive: 25.9 µM [inhibitor, single point]
O=C(O)CSc1cc(NS(=O)(=O)c2cccc([N+](=O)[O-])c2)c2ccccc2c1O | inconclusive: 29.1 µM [inhibitor, single point]
O=C(/C=C/c1cccnc1)c1ccc([N+](=O)[O-])cc1 | inconclusive: 29.1 µM [inhibitor, single point]
O=S(=O)(/N=C(\Sc1ccc(Cl)cc1)c1ccccc1)c1ccccc1 | inactive
CC(C)(C)c1nnc(NS(=O)(=O)c2ccc([N+](=O)[O-])cc2)s1 | inactive
S=C(NNc1ccnc2cc(Cl)ccc12)Nc1ccccc1Cl | inconclusive: 18.4 µM [inhibitor, partial curve]
O=C(/C=C/c1ccccc1F)c1cccc([N+](=O)[O-])c1 | active: 25.9 µM
CCCOc1ccc(Cl)cc1/C=C1/C(=O)ON=C1C | inactive
COc1ccc(N2C(=O)C(Cl)=C(Oc3cccc(OC)c3)C2=O)cc1 | active: 5.8 µM
COc1ccc(C)cc1N1C(=N)/C(=C2/Nc3ccccc3S2)C(c2ccccc2)C1=O (stereo unspecified) | inactive
Fc1cccc(Cl)c1CNc1ccc(N2CCCC2)cc1 | inactive
CCSC1=NC(C)(C)C=C(/C=C/c2ccc(Cl)cc2Cl)N1 | active: 23.1 µM

SMILES | Potency
Cc1sc(C(C2C(=O)CC(C)(C)CC2=O)C2C(=O)CC(C)(C)CC2=O)cc1[N+](=O)[O-] | inactive
Cc1cccc(C)c1NC(=O)c1nc(S(=O)(=O)Cc2ccccc2F)ncc1Cl | active: 6.51 µM
CC(=O)Nc1cccc(C(=O)/C=C/c2ccc(Br)cc2)c1 | inconclusive: 20.6 µM [inhibitor, single point]
Cc1c(Cc2ccc3c(c2)OCO3)sc(NC(=O)c2cccc3ccccc23)c1C(N)=O | inconclusive: 8.2 µM [inhibitor, partial curve, poor fit]
O=C1Nc2ccccc2/C1=C\C(=O)c1ccccc1 | inconclusive: 16.4 µM [inhibitor, single point]
C=CCOc1cccc(C(=O)/C=C2/C(=O)Nc3ccccc32)c1 | inconclusive: 29.1 µM [inhibitor, single point]
CC(C)c1nnc(NC(=O)c2nc(S(=O)(=O)Cc3ccccc3F)ncc2Cl)s1 | active: 18.4 µM
CCOC(=O)CNCCC(=O)c1ccc(Br)cc1 | inconclusive: 29.1 µM [inhibitor, single point]
O=C(/C=C/c1ccnc2ccccc12)c1cccs1 | inconclusive: 18.4 µM [inhibitor, single point]
O=[N+]([O-])/C=C/c1ccc2c(ccn2Cc2ccccc2)c1 | active: 18.4 µM
CCc1ccc2c(c1)/C(=C/C(=O)c1cccs1)C(=O)N2 | inconclusive: 29.1 µM [inhibitor, single point]
CS(=O)(=O)c1ncc(Cl)c(C(=O)Nc2ccc(OC(F)F)cc2)n1 | inconclusive: 29.1 µM [inhibitor, single point]
CCOC(=O)c1c(N)sc(N)c1C(=O)OCC | inactive
CCOc1ccc(N(Cc2ccccc2)C(=O)c2nc(S(C)(=O)=O)ncc2Cl)cc1 | active: 20.6 µM
c1ccc(-c2nnc3sc(-c4csc5c4CCCC5)nn23)cc1 | inconclusive: 20.6 µM [inhibitor, partial curve]
COc1ccc(C(=O)c2coc3c2C(=O)C(=O)c2ccccc2-3)cc1 | inconclusive: 13 µM [inhibitor, partial curve, poor fit]
CN(c1ccccc1)S(=O)(=O)c1ccc(NC(=O)c2nc(S(C)(=O)=O)ncc2Cl)cc1 | active: 3.66 µM
c1ccc(-c2ccc(C3=Nn4c(Cn5nnc6ccccc65)nnc4SC3)cc2)cc1 | inactive
O=C1/C(=C/c2cccc([N+](=O)[O-])c2)CCc2ccccc21 | inconclusive: 20.6 µM [inhibitor, single point]
Cc1ccccc1N1C(=O)c2sc3nc4c(c(=O)n3c2C1=O)CCC4 | inconclusive: 29.1 µM [inhibitor, single point]
